The record followed here is PMC10582012.

Protein sequences, listed by entry. Tags and fused reporters are not part of them. Lines headed by an entry give the natural chain unless they say otherwise; changes in a name come on top.
UniProt P35222: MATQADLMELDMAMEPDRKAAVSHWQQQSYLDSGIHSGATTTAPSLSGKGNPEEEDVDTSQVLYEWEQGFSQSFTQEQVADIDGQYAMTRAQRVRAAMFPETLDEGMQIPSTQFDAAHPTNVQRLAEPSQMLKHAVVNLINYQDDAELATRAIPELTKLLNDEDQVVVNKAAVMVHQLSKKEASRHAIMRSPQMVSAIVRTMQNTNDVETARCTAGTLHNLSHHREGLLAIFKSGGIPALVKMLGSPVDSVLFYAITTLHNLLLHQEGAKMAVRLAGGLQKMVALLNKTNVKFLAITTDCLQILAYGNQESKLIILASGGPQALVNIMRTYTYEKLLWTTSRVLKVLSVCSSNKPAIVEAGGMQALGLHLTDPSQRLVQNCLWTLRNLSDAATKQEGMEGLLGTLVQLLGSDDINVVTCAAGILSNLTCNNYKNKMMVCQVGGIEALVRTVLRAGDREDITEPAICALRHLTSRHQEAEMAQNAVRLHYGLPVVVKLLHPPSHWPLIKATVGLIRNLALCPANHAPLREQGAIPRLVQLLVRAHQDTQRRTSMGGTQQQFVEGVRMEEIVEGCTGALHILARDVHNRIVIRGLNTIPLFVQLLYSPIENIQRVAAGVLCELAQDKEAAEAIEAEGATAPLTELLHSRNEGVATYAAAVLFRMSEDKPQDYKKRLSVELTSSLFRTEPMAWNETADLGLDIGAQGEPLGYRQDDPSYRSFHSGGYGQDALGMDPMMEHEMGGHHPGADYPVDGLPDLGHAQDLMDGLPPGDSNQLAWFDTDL
UniProt Q13200: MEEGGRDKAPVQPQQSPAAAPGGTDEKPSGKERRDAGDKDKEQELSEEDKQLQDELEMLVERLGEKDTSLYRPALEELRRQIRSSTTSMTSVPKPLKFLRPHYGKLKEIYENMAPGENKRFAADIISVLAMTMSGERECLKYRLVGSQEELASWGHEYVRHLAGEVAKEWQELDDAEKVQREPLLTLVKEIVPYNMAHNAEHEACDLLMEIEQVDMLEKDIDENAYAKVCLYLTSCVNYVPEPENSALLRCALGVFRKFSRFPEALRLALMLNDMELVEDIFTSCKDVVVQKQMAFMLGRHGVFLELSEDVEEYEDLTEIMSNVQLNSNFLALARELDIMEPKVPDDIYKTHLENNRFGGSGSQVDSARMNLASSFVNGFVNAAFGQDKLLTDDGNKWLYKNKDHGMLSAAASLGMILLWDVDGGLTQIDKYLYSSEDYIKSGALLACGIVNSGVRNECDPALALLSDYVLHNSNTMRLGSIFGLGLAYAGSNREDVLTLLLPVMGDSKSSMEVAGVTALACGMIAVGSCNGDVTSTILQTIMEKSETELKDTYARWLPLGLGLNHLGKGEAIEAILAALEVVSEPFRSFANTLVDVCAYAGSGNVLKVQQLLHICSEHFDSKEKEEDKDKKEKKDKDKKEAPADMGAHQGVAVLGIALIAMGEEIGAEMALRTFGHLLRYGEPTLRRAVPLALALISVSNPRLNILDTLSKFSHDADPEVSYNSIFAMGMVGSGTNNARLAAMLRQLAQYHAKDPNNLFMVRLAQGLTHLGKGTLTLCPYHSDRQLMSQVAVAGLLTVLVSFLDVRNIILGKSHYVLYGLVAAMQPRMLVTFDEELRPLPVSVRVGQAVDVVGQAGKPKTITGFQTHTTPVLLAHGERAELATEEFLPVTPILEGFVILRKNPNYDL

No constants are given. Whether binding was seen depends on the method and setting. In cells and extracts the contact can be indirect. Some binding calls cover weakened binding; strength is not graded here.

The target in assay [1] is full-length myc-tagged β-catenin (UniProt P35222). Put plainly: co-IP; tagged proteins co-transfected into HEK-293T cells; IP with anti-Flag, anti-HA or anti-myc antibodies; some panels with tagged ubiquitin and MG132; lysis buffer 40 mM Tris, 150 mM NaCl, 1% Triton X-100.
Assay [2] concerns the target full-length Flag-tagged PSMD2 (UniProt Q13200). Described as above.
Assay [3] addresses β-catenin, endogenous in breast cancer cells (human (endogenous in MDA-231 and BT549)) (UniProt P35222). As to the kind of experiment: co-IP; endogenous proteins in MDA-231 and BT549 lysates; anti-RACK1, anti-β-catenin or anti-PSMD2 antibodies; lysis buffer 40 mM Tris, 150 mM NaCl, 1% Triton X-100; also in RACK1-silenced, RACK1-rescued and β-catenin-silenced cells and in cells transfected with UB-HA and treated with MG132.

Assay [4] addresses phospho-mimetic β-catenin-S33E/S37E/T41E/S45E, myc-tagged (UniProt P35222). As to the kind of experiment: co-IP; tagged proteins co-transfected into HEK-293T cells; IP with anti-Flag, anti-HA or anti-myc antibodies; some panels with tagged ubiquitin and MG132; lysis buffer 40 mM Tris, 150 mM NaCl, 1% Triton X-100.
For assay [5], the target named is HA-tagged full-length PSMD2 (UniProt Q13200). As to the kind of experiment: co-IP; HEK-293T cells with exogenous β-catenin and PSMD2 in the presence of elevated RACK1 expression.
For assay [6], the target named is PSMD2, endogenous in HEK-293T cells (human (endogenous in HEK-293T)) (UniProt Q13200). As to the kind of experiment: co-IP; HEK-293T cells transfected with increasing amounts of RACK1 plasmids; IP with anti-PSMD2 antibodies; endogenous PSMD2 and β-catenin.
For assay [7], the target named is PSMD2, endogenous in breast cancer cells (human (endogenous in MDA-231 and BT549)) (UniProt Q13200). Put plainly: co-IP; endogenous proteins in MDA-231 and BT549 lysates; anti-RACK1, anti-β-catenin or anti-PSMD2 antibodies; lysis buffer 40 mM Tris, 150 mM NaCl, 1% Triton X-100; also in RACK1-silenced, RACK1-rescued and β-catenin-silenced cells and in cells transfected with UB-HA and treated with MG132.

On to “HA-tagged full-length PSMD2 (from UniProt Q13200 1-908)”, for which the binding entry in assay [1] is on record as “binds”.
“N-terminal truncated β-catenin-ΔN, HA-tagged (from UniProt P35222 101-781) (domain or fragment)”: the binding result in assay [2] is “no binding”.
With “PSMD2, endogenous in breast cancer cells (from UniProt Q13200 1-908)”, in assay [3], the binding result is “binds”.
With “full-length Flag-tagged PSMD2 (from UniProt Q13200 1-908)”, the binding result in assay [4] is “binds”.
For “full-length HA-tagged β-catenin (from UniProt P35222 1-781)”, in assay [2], the binding result is listed as “binds”.
Consider “full-length myc-tagged β-catenin (from UniProt P35222 1-781)”, for which the binding entry in assay [5] and in assay [2] was “binds” each time.
As to “phospho-deficient β-catenin-S33A/S37A/T41A/S45A, HA-tagged (from UniProt P35222 1-781)”, the binding result in assay [2] is “no binding”.
Still for that read-out and setting: next, “phospho-mimetic β-catenin-S33E/S37E/T41E/S45E, myc-tagged (from UniProt P35222 1-781)”: “binds”.
For “β-catenin, endogenous in HEK-293T cells (from UniProt P35222 1-781)”, the binding result in assay [6] is given as “binds”.
For the substance “β-catenin, endogenous in breast cancer cells (from UniProt P35222 1-781)”, the binding result in assay [7] is “binds”.
